Measurements as given in article PMC12136788.
Numbering of substitutions follows the chain as printed. The list shows a part of the results.

B1: 35098351_35098679_1895_CDS_ENSMUSG00000024359_ENSMUST00000025217|mouse|control|control (ssRNA)
RNA: GGGAGUUCUACAGUCCGACGAUCGGAAAUCUCUUCCUUUAGCUUGUUGCACUCAUCAGCAGGCAACUGGUCCUUAAAUUCUUCCAUCUUGGUUUCUGUGUCAUGAAUAAUUCCUUCAGCCAUAUUAACUGCUUCAACACGUUCCAACAGAGGAUUGAGCAUCA
B2: chr6:160205776:160205777:-_ENSG00000120438_ENST00000420894|hu_mus|FALSE|FALSE (ssRNA)
RNA: GGGAGUUCUACAGUCCGACGAUCGAGCGCAUAGCCAUUGAUCAGCAUGCUUUCUAUCUGACUUCUCCCAUGGGCUUUCAGAAUAUUAACAGAAUUGACUGGAUAGCGAGGCUGGCCUCUGGCAUCUGUGUAUUUAACAGCAAGCAACAGAGGAUUGAGCAUCA
B3: chr12:48362563:48362564:+_ENSG00000134291_ENST00000256686|hu_hu|hu_hu_hu_mus_False|1_48 (ssRNA)
RNA: GGGAGUUCUACAGUCCGACGAUCUCCGUCAAGCCCUUCGAUAGACCCUUGCGGGGGAAACUGUAAUCACUUUGUAUGGGGAAGGAAAAAAAAAGCCAAAAACUUUCCAAAAAGCGGGGGUGGGGUGAGGCGGGAGGUUGGGAACAACAGAGGAUUGAGCAUCA
B4: chr17:64801638:64801639:+_ENSG00000154229_ENST00000413366|hu_mus|hu_hu_hu_mus_False|1_108 (ssRNA)
RNA: GGGAGUUCUACAGUCCGACGAUCUAUAAAUACAUAUACAUAUGUACACAUAUAUAGUAAAACCCUAGUUAAACGUGUAAAGUAGCCAUUCAUUUUUAAAAUUACAUCUACAUUAAAAAAUUAAUAUAUCUGAUAGAGUGCCCACAACAGAGGAUUGAGCAUCA
B5: chr1:35656432:35656433:-_ENSG00000116560_ENST00000357214|perfect_dup|FALSE|FALSE (ssRNA)
RNA: GGGAGUUCUACAGUCCGACGAUCAGAUCUUCCGCGAUCAUCCACAAUUACAACAGCCCUUUCAAUAGGACCAAACUGGCUAAAGGCCUCUUCCAAAAGUUCGUUGGAAACAUAAGGAGAGAGAUUUCGAACAGACAGGGCUGCCAACAGAGGAUUGAGCAUCA
B6: chr2:127988141:127988142:+_ENSMUSG00000027381_ENSMUST00000110341|mus_hu|motif|central (ssRNA)
RNA: GGGAGUUCUACAGUCCGACGAUCCUGUCAAAAUUCAUCAGUGCAAAACACAAGUAAGCCAGGGAAACUGCAAUACAAAUGCGGCAUACGCUGGGUCCUAGAAAACAGGUUAGUGAUGGAUCAGUAUACAGCCAGAUCAGUGCUCAACAGAGGAUUGAGCAUCA
B7: chr8:104444897:104444898:+_ENSG00000164934_ENST00000297579|hu_mus|FALSE|FALSE (ssRNA)
RNA: GGGAGUUCUACAGUCCGACGAUCUGCAGUAAAAUUGAAAGCUUCCAUAGGGUUCCAACAGAUUGUAUUUGUCCUCAUUUCCAGGAUAACCUUUUUCAAAGGAGUAGCUUGCCGCAUAUCAUACAGUACUAUAUUCCUAUCAGACAACAGAGGAUUGAGCAUCA
B8: chr2:198351390:198351391:-_ENSG00000144381_ENST00000345042|hu_hu|hu_hu_hu_mus_False|38_108 (ssRNA)
RNA: GGGAGUUCUACAGUCCGACGAUCUCAUUCUCACUCUCCACAGAAAGGCUGCUUCUGAACUCUCAUGUGGUGACACAGCGCUACAGUCCUGAUGCUCACAGAAUAGUAGAGAUGCCUCAGUGAUUUAAGUUGAAAGCAGGACACCAACAGAGGAUUGAGCAUCA
B9: chr11:51414962:51414963:-_ENSMUSG00000020358_ENSMUST00000074669|mus_hu|FALSE|FALSE (ssRNA)
RNA: GGGAGUUCUACAGUCCGACGAUCGUAUGGCUUGUAGUUAUUCUGAUGGCCACCACGUCGCUGGCUCUUGCCGUAGUUUGUACUACCCUGACUGUAGUCGUAGCCGGGGCCGUAGCCGUAAUAGCCAUAGGGCGAGUAGUCGUACAACAGAGGAUUGAGCAUCA
B10: 123983550_123983670_1669_CDS_ENSG00000168916_ENST00000504926|human|control|control (ssRNA)
RNA: GGGAGUUCUACAGUCCGACGAUCGGAGUCCUCUAGUUUCCCCAGCUUGGCAUCCAUUUUUGGGCUUCCCGUCUCUUUCCCUUCUUUGUCCUUUAGCUUUCGCUUCUCCUUUUUCUUUUUGUCUUUGAGUGACACCAGAGCUGGCAACAGAGGAUUGAGCAUCA
B11: chr11:10819206:10819207:-_ENSG00000110321_ENST00000525681|hu_hu|motif|central (ssRNA)
RNA: GGGAGUUCUACAGUCCGACGAUCUGGUAGACUAUGAUUAAGACAUUACACUACAAAAAAACCUUAUGCAGAAGGAAAUCCGGACUGACGUGCUUCUGCUUUAAAUAUUGUGAAAACAUUACAGCGGAAUGAAUUUUCGCAGUGCAACAGAGGAUUGAGCAUCA
B12: chr17:57762449:57762450:+_ENSG00000141367_ENST00000269122|hu_mus|motif|central (ssRNA)
RNA: GGGAGUUCUACAGUCCGACGAUCUUCGUGUUUUUCCAAACGCUGAGCAAGUGAGAUGUUGUCAAAGUUGUCAUAAGCAUCGGUUGAUGUUCGCAGAGCCUGGUAAUCUUCUUCAGUAAUAAAGAGGUUGUUCAGUGAUUCAUUCAACAGAGGAUUGAGCAUCA
B13: chrX:77160730:77160731:+_ENSG00000131174_ENST00000481445|hu_hu|motif|central (ssRNA)
RNA: GGGAGUUCUACAGUCCGACGAUCUUACUGAUUCCUCCAUUCCUUUGGGGUAACUCUGCCAACAGGGGACAGGUUCCAUUCGGUUCCGACUUGUGUUGCUACAUAUGUCCAUGUAACAAUACAGAAAGUGGCUCCACUAGCUAACAACAGAGGAUUGAGCAUCA
B14: chr11:10819206:10819207:-_ENSG00000110321_ENST00000525681|hu_hu|FALSE|FALSE (ssRNA)
RNA: B11 RNA with G81U, G82A

These binders were tested against T1, UNK ZnF1-3 (human, UniProt Q9C0B0 31-174) (assay: nsRBNS (natural sequence RNA bind-n-seq); RBNS binding buffer (assumed for nsRBNS): 25 mM Tris pH 7.5, 150 mM KCl, 3 mM MgCl2, 0.01% Triton X-100, 500 ug/ml BSA, 20 U/ml SUPERase-In, 4 C; UNK is unkempt and MSI1 is Musashi-1; names of the RNAs are library labels; protein concentration not given here; high values mean tight binding).
T1 sequence: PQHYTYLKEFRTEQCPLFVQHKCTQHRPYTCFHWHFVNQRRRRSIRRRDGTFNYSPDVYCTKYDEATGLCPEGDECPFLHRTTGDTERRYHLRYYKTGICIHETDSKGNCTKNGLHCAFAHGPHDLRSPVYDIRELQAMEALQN

| Binder | binding signal [enrichment R] |
| --- | --- |
| B1 | 0.598 |
| B2 | 1.22 |
| B3 | 2.45 |
| B4 | 1.64 |
| B5 | 1.07 |
| B6 | 1.3 |
| B7 | 1.48 |
| B8 | 1.36 |
| B9 | 0.428 |
| B10 | 0.272 |
| B11 | 0.78 |
| B12 | 0.712 |
| B13 | 0.594 |
| B14 | 0.675 |
